# Laboratory results reported in the supplement of paper PMC11417369.
# ± gives the standard deviation of the averaged measurements. This is one part of the list.
# Test system: PfAP2-EXP AP2 domain (GST-tagged)
# Assay: gcPBM binding intensity (ln(normalized median fluorescence intensity)); higher = stronger DNA binding
# Outline: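 The binding buffer was 1× PBS containing 1% milk, 0.2 mg/ml BSA, 0.5% salmon testes DNA and 0.03% Triton X-100. In it, GST-tagged P. falciparum DNA-binding domains expressed in E. coli were applied for 1 h to an Agilent 4 × 180k array of primer-extended double-stranded 36-bp intergenic genomic probes plus negative controls. Binding intensity, read with Alexa488 anti-GST antibody and a 488 nm scan, is the highest Masliner-normalised natural-log median intensity across replicate spots of either probe orientation.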
row,Sequence,gcPBM binding intensity (ln)
1,ATATAATTTGATGGTTAACACACATATATATTATAT [CACACA_site8775],8.4 ± 0.4
2,TCATATAATCAAATATGTACATATTTTCAATTGAAT [XGTACX_site6831],8.72 ± 0.38
3,ATATTTATTTAATGAACACACGATATATTATTTTAT [CACACA_site1602],8.45 ± 0.35
4,TTATTTATTTTTTATACACACAATTATCTTTTTAAG [CACACA_site6162],8.47 ± 0.49
5,ATATAGAATATATTAACATGCAATAAGTAAAGGGGG [TGCATGCA_site1022],9.4 ± 0.11
6,CACTTCATAAAAATTGCACACATATAATAATGTACA [CACACA_site8692],8.51 ± 0.23
7,ACAATGAAATATTCATGTACATATAAATAATAGTGT [XGTACX_site3762],8.85 ± 0.41
8,AAAATGATAATACCAAGTACACATATGAAAAATACA [XGTACX_site6763],8.9 ± 0.42
9,TAAAAACATTTAAATTGTACGGAAATAAAAATTTTT [XGTACX_site8225],8.52 ± 0.34
10,TGTTTTCCCTTTAGTGTGCACGTATTTCTATTAACA [GTGCAC_site9847],9.32 ± 0.36
11,TAAATCATTTATTAAGTGCAATATTCTTTTTGAGAT,8.365 ± 0.021
12,ATATAAATATTAAATACACACATTTTTGATTAGGTT [CACACA_site7461],8.22 ± 0.34
13,TATTTCGTAATTTAATAATATACAAGAAATATATAT [XGTACX_negctrl_site143],8.16 ± 0.47
14,TATGTGTATAATAAAAGTACATATATTATTATATAA [XGTACX_site8556],8.38 ± 0.31
15,CATATAATAAAAAATGTACACACATAAGAAAATTTA [CACACA_site8943],8.84 ± 0.51
16,TAAAATAATAAAACAACACACAAATAGTTAAAATAG [CACACA_site1680],8.88 ± 0.41
17,ATTGACGTCATATAAACATGCACATTTTGGATGTTT [TGCATGCA_site985],8.49 ± 0.33
18,TTTTTTTTAAATTGTGGTACACAAATTCATATATAT [XGTACX_site8944],8.48 ± 0.41
19,TAAATATAATAAGAACAAACAAAATAGTACAATATA [TGCATGCA_negctrl_site364],8.85 ± 0.42

row,Sequence,gcPBM binding intensity (ln)
1,TGTTAACTTAAAAAAATACCTACGGAAAAATCACAA [TGCATGCA_negctrl_site433],8.51 ± 0.51
2,AAAAGAAAAAAAAGTACACACATGTATATTAATCGT [CACACA_site2528],8.89 ± 0.46
3,GTCATATTATTATTACGTACTTAAATATATAATATA [XGTACX_site3405],8.69 ± 0.25
4,TACAAAATACAAAAATGTACATAAAAATTTATAAAA [XGTACX_site6861],8.7 ± 0.41
5,ATATTAAAATATAATCGTACAATTAAATTTTTTTTT [XGTACX_site2739],8.2 ± 0.32
6,TACAGATACGGACACACACACACACCCAGACAAAAA [CACACA_site4432],8.71 ± 0.43
7,AAGATAAACTTTTTTAATTAATTTAATTTTTTTTTT [GTGCAC_negctrl_site386],8.24 ± 0.59
8,AATAAATAAAAAATTACACACATATTTATAAATATA [CACACA_site7584],8.29 ± 0.49
9,TTATAATAGTTAATATGTACATATTTAATAAATAAT [XGTACX_site3183],8.43 ± 0.2
10,CCCCCCCACGAACACACACACATACATACCACATAT [CACACA_site7149],10.41 ± 0.028
11,TTTGTTTTTATTTACACATGCAAAAAAAAAAAAAAA [TGCATGCA_site655],8.32 ± 0.28
12,TAAAATAAGTTAAAAAGTACATAATTATAATAAATA [XGTACX_site8108],8.43 ± 0.39
13,CACAAAAATAAATATAAACACACAATAAATAAATAA [CACACA_site8197],8.71 ± 0.36
14,ATATATATATATATTCCACACACACCCAAAAAAAAA [CACACA_site9215],10.1 ± 0.24
15,AAAGGGACATATATATCACACACAAAAATTAGTCCC [CACACA_site8897],8.85 ± 0.68
16,TAATATCTACATATATGTACATATATATATATATAT [XGTACX_site7979],9.94 ± 0.4
17,TTATATATGTATTAATGTACATAGTTGAGAAAGGTA [XGTACX_site1511],8.79 ± 0.49
18,ATAATATAGAACAATACATGCAAATGGCTTAAATTT [TGCATGCA_site521],9.09 ± 0.26
19,GGAAGCTAATTACACACATGCATATTTTTTTTTCAA [TGCATGCA_site548],8.79 ± 0.35

row,Sequence,gcPBM binding intensity (ln)
1,ATGGGACAGATATATACACACATATAAATATAAATA [CACACA_site6684],8.74 ± 0.44
2,TATGTTAAAAAAAAATGTACATATGTTTTTGTTAAA [XGTACX_site4754],8.36 ± 0.32
3,TTTCCCCCATATAATGAACACACACCCTCCTCATAA [CACACA_site8110],9.68 ± 0.38
4,ATACATTCAAAATATACACACATATATATATAATAT [CACACA_site950],8.49 ± 0.39
5,AAATGAATAATGATATACAAACAAATCATGTGTTAA [XGTACX_negctrl_site150],8.37 ± 0.33
6,GACCCATTATTTTATTGTACTTTTATTATAACGTGA [XGTACX_site156],8.89 ± 0.35
7,ATGTGTGTATACATCAATTATATATATATTATGTAT [GTGCAC_negctrl_site720],8.6 ± 0.33
8,AAAATAAAAATAACAACACACATATACTATAATATT [CACACA_site2769],8.7 ± 0.46
9,CATTTCATTTCTTAATGTACTTTATTCCACCACATA [XGTACX_site5943],8.76 ± 0.42
10,TTTATTATTATATTATTTTAATTTTTCTTTAGTACA [GTGCAC_negctrl_site392],8.29 ± 0.32
11,AAATTAAATAAATTTACACACTAAAAATTACATATA [CACACA_site1054],8.22 ± 0.34
12,ATAAATATATGAAGTTGTACAAATAATTAACATTAT [XGTACX_site5740],8.73 ± 0.42
13,TACCATGTTCAAATTACACACATATAATCTAATATA [CACACA_site2008],8.4 ± 0.43
14,ATTTTTTTTAATTTGTACAAATTTTGTTCACAATTT [CACACA_negctrl_site1301],8.91 ± 0.57
15,CGTAAACGATATAAATGTACGAATATCTATATATTA [XGTACX_site8116],8.37 ± 0.45
16,TATATATTGCCCTTCACACACACACCGATATATATA [CACACA_site5390],9.11 ± 0.3
17,ATATATATATATATTTGTACTTACATTTTTATTTAT [XGTACX_site4551],9.9 ± 0.47
18,AAAAATATAACCGTTACACACAAAATAATATGAGAA [CACACA_site3773],8.72 ± 0.43
